The term EC50 denotes the concentration at which the effect is half-maximal. Lower therefore signals a more potent agent.

B1: 166 (protein)
chain: HGEGTFTSDKSKQLAKRLVREFIEWLIKGGHSSGKPPPKGGGGGGGSGGGGSGGGGSA[… human IgG4 Fc with changes …]GGGSGSAHPIPDSSPLLQFGGQVRQRYLYTDDACQTEAHLEIREDGTVGGAADQSPESLLQLKALKPGVIQILGVKTSRFLCQRPDGALYGSLHFDPEACSFRELLLEDGYNVYQSEAHGLPLHLPGCKSPHRDPAPRGPARFLPLPGLPPAPPEPPGILAPQPPDVGSSDPLSMVGSQGRSPSYAS
modifications: Fusion Protein
B2: 153 (protein)
chain: HGEGTFTSDKSQLLEKRLAHLFIEWLLAGGHSSIKPPPKGGGGGGGSGGGGSGGGGSA[… human IgG4 Fc with changes …]GGGSGSAHPIPDSSPLLQFGGQVRQRYLYTDDACQTEAHLEIREDGTVGGAADQSPESLLQLKALKPGVIQILGVKTSRFLCQRPDGALYGSLHFDPEACSFRELLLEDGYNVYQSEAHGLPLHLPGCKSPHRDPAPRGPARFLPLPGLPPAPPEPPGILAPQPPDVGSSDPLSMVGSQGRSPSYAS
modifications: Fusion Protein
B3: 145 (protein)
chain: HGEGTFTSDKSQLLEKRLAHLFIEWLIKGGHSSIRPPPKGGGGGGGSGGGGSGGGGSA[… human IgG4 Fc with changes …]GGGSGSAHPIPDSSPLLQFGGQVRQRYLYTDDACQTEAHLEIREDGTVGGAADQSPESLLQLKALKPGVIQILGVKTSRFLCQRPDGALYGSLHFDPEACSFRELLLEDGYNVYQSEAHGLPLHLPGCKSPHRDPAPRGPARFLPLPGLPPAPPEPPGILAPQPPDVGSSDPLSMVGSQGRSPSYAS
modifications: Fusion Protein
B4: 147 (protein)
chain: HGEGTFTSDKSQLLEKRLAHLFIEWLLKGGHSSGRPPPKGGGGGGGSGGGGSGGGGSA[… human IgG4 Fc with changes …]GGGSGSAHPIPDSSPLLQFGGQVRQRYLYTDDACQTEAHLEIREDGTVGGAADQSPESLLQLKALKPGVIQILGVKTSRFLCQRPDGALYGSLHFDPEACSFRELLLEDGYNVYQSEAHGLPLHLPGCKSPHRDPAPRGPARFLPLPGLPPAPPEPPGILAPQPPDVGSSDPLSMVGSQGRSPSYAS
modifications: Fusion Protein
B5: 158 (protein)
chain: HGEGTFTSDKSQLLEKRLAHLFIEWLIKGGHSKGRPPPKGGGGGGGSGGGGSGGGGSA[… human IgG4 Fc with changes …]GGGSGSAHPIPDSSPLLQFGGQVRQRYLYTDDACQTEAHLEIREDGTVGGAADQSPESLLQLKALKPGVIQILGVKTSRFLCQRPDGALYGSLHFDPEACSFRELLLEDGYNVYQSEAHGLPLHLPGCKSPHRDPAPRGPARFLPLPGLPPAPPEPPGILAPQPPDVGSSDPLSMVGSQGRSPSYAS
modifications: Fusion Protein
B6: 136 (protein)
chain: HGEGTFTSDKSKLLEKRLAHLFIEWLLAGGHSKGKPPPKGGGGGGGSGGGGSGGGGSA[… human IgG4 Fc with changes …]GGGSGSAHPIPDSSPLLQFGGQVRQRYLYTDDACQTEAHLEIREDGTVGGAADQSPESLLQLKALKPGVIQILGVKTSRFLCQRPDGALYGSLHFDPEACSFRELLLEDGYNVYQSEAHGLPLHLPGCKSPHRDPAPRGPARFLPLPGLPPAPPEPPGILAPQPPDVGSSDPLSMVGSQGRSPSYAS
modifications: Fusion Protein
B7: 126 (protein)
chain: HGEGTFTSDKSKLLEKRAAHLFIEWLIAGGHSSIKPPPKGGGGGGGSGGGGSGGGGSA[… human IgG4 Fc with changes …]GGGSGSAHPIPDSSPLLQFGGQVRQRYLYTDDACQTEAHLEIREDGTVGGAADQSPESLLQLKALKPGVIQILGVKTSRFLCQRPDGALYGSLHFDPEACSFRELLLEDGYNVYQSEAHGLPLHLPGCKSPHRDPAPRGPARFLPLPGLPPAPPEPPGILAPQPPDVGSSDPLSMVGSQGRSPSYAS
modifications: Fusion Protein
B8: 142 (protein)
chain: HGEGTFTSDKSQLLEKRLAHLFIEWLIAGGHKSGKYSPKGGGGGGGSGGGGSGGGGSA[… human IgG4 Fc with changes …]GGGSGSAHPIPDSSPLLQFGGQVRQRYLYTDDACQTEAHLEIREDGTVGGAADQSPESLLQLKALKPGVIQILGVKTSRFLCQRPDGALYGSLHFDPEACSFRELLLEDGYNVYQSEAHGLPLHLPGCKSPHRDPAPRGPARFLPLPGLPPAPPEPPGILAPQPPDVGSSDPLSMVGSQGRSPSYAS
modifications: Fusion Protein
B9: 155 (protein)
chain: HGEGTFTSDKSQLLEKRLAHLFIEWLIAGGHSKGRLPPKGGGGGGGSGGGGSGGGGSA[… human IgG4 Fc with changes …]GGGSGSAHPIPDSSPLLQFGGQVRQRYLYTDDACQTEAHLEIREDGTVGGAADQSPESLLQLKALKPGVIQILGVKTSRFLCQRPDGALYGSLHFDPEACSFRELLLEDGYNVYQSEAHGLPLHLPGCKSPHRDPAPRGPARFLPLPGLPPAPPEPPGILAPQPPDVGSSDPLSMVGSQGRSPSYAS
modifications: Fusion Protein
B10: 127 (protein)
chain: HGEGTFTSDKSQLLEKRLAHLFIEWLIKGGHSSGRPPPKGGGGGGGSGGGGSGGGGSA[… human IgG4 Fc with changes …]GGGSGSAHPIPDSSPLLQFGGQVRQRYLYTDDACQTEAHLEIREDGTVGGAADQSPESLLQLKALKPGVIQILGVKTSRFLCQRPDGALYGSLHFDPEACSFRELLLEDGYNVYQSEAHGLPLHLPGCKSPHRDPAPRGPARFLPLPGLPPAPPEPPGILAPQPPDVGSSDPLSMVGSQGRSPSYAS
modifications: Fusion Protein
B11: 133 (protein)
chain: HGEGTFTSDKSQLLEKRLAHLFIEWLIKGGHSKQKPPPKGGGGGGGSGGGGSGGGGSA[… human IgG4 Fc with changes …]GGGSGSAHPIPDSSPLLQFGGQVRQRYLYTDDACQTEAHLEIREDGTVGGAADQSPESLLQLKALKPGVIQILGVKTSRFLCQRPDGALYGSLHFDPEACSFRELLLEDGYNVYQSEAHGLPLHLPGCKSPHRDPAPRGPARFLPLPGLPPAPPEPPGILAPQPPDVGSSDPLSMVGSQGRSPSYAS
modifications: Fusion Protein
B12: 150 (protein)
chain: HGEGTFTSDKSQLLEKELAHLFIEWLIAGGHSKGRPPPKGGGGGGGSGGGGSGGGGSA[… human IgG4 Fc with changes …]GGGSGSAHPIPDSSPLLQFGGQVRQRYLYTDDACQTEAHLEIREDGTVGGAADQSPESLLQLKALKPGVIQILGVKTSRFLCQRPDGALYGSLHFDPEACSFRELLLEDGYNVYQSEAHGLPLHLPGCKSPHRDPAPRGPARFLPLPGLPPAPPEPPGILAPQPPDVGSSDPLSMVGSQGRSPSYAS
modifications: Fusion Protein
B13: 146 (protein)
chain: HGEGTFTSDKSQLLEKRLAHLFIEWLLAGGHKKGKPPPKGGGGGGGSGGGGSGGGGSA[… human IgG4 Fc with changes …]GGGSGSAHPIPDSSPLLQFGGQVRQRYLYTDDACQTEAHLEIREDGTVGGAADQSPESLLQLKALKPGVIQILGVKTSRFLCQRPDGALYGSLHFDPEACSFRELLLEDGYNVYQSEAHGLPLHLPGCKSPHRDPAPRGPARFLPLPGLPPAPPEPPGILAPQPPDVGSSDPLSMVGSQGRSPSYAS
modifications: Fusion Protein
B14: 165 (protein)
chain: HGEGTFTSDLSKQLAKRLVRLFIEWLIKGGHSSGKPPPKGGGGGGGSGGGGSGGGGSA[… human IgG4 Fc with changes …]GGGSGSAHPIPDSSPLLQFGGQVRQRYLYTDDACQTEAHLEIREDGTVGGAADQSPESLLQLKALKPGVIQILGVKTSRFLCQRPDGALYGSLHFDPEACSFRELLLEDGYNVYQSEAHGLPLHLPGCKSPHRDPAPRGPARFLPLPGLPPAPPEPPGILAPQPPDVGSSDPLSMVGSQGRSPSYAS
modifications: Fusion Protein
B15: 134 (protein)
chain: HGEGTFTSDKSKLLEKRLAHLFIEWLIKGGHKSGKPPPKGGGGGGGSGGGGSGGGGSA[… human IgG4 Fc with changes …]GGGSGSAHPIPDSSPLLQFGGQVRQRYLYTDDACQTEAHLEIREDGTVGGAADQSPESLLQLKALKPGVIQILGVKTSRFLCQRPDGALYGSLHFDPEACSFRELLLEDGYNVYQSEAHGLPLHLPGCKSPHRDPAPRGPARFLPLPGLPPAPPEPPGILAPQPPDVGSSDPLSMVGSQGRSPSYAS
modifications: Fusion Protein
B16: 163 (protein)
chain: HGEGTFTSDKSKQLAEEAVQLFIEWLLAGGPSKEIISGGGGGGGSGGGGSGGGGSA[… human IgG4 Fc with changes …]GGGSGSAHPIPDSSPLLQFGGQVRQRYLYTDDACQTEAHLEIREDGTVGGAADQSPESLLQLKALKPGVIQILGVKTSRFLCQRPDGALYGSLHFDPEACSFRELLLEDGYNVYQSEAHGLPLHLPGCKSPHRDPAPRGPARFLPLPGLPPAPPEPPGILAPQPPDVGSSDPLSMVGSQGRSPSYAS
modifications: Fusion Protein

The target in the assay is T1, Human GLP-1R (Homo sapiens, UniProt P43220).
T1 construct: expressed in transfected cells; host or cells: HEK-293
T1 sequence (P43220 24-463): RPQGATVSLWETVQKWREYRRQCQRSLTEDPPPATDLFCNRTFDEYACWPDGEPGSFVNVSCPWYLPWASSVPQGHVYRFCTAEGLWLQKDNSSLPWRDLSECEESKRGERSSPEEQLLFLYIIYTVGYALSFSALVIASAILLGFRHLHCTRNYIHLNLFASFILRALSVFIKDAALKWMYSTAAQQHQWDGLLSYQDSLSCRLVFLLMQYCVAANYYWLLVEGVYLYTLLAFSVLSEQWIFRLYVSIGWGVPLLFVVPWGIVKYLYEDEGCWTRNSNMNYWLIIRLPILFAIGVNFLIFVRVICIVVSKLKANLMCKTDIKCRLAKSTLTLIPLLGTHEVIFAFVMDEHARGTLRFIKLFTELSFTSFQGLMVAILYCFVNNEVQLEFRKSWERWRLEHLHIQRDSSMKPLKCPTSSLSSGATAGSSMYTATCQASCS
Put plainly: HTRF cAMP assay in HEK-293 cells, human GLP-1R. The format is cell-based. How it is done: Recombinant HEK-293 cells were grown in T175 culture flasks placed at 37° C. to near confluence in medium (DMEM with 10% FBS) and collected in 2 mL vials in cell culture medium containing 10% DMSO in concentrations of 1-5×10^7 cells/mL. Each vial contained 1.8 mL cell suspension. The vials were slowly frozen to −80° C. in an isopropanol chamber, and then transferred to liquid nitrogen for long term storage.
Prior to their use, frozen cells were thawed quickly at 37° C., washed with 20 mL cell buffer (1×HBSS; 20 mM HEPES, 0.1% BSA) and centrifuged for 5 minutes at 900 rpm. Cells were resuspended in assay buffer (cell buffer plus 2 mM IBMX) and adjusted to a cell density of 1×10^6 cells/mL. For measurement, 5 μL cell suspension (final 5×10^3 cells/well) and 5 μL of test compound were added to a well of a 384-well plate, followed by incubation for 30 minutes at room temperature. […] The cAMP content of cells was determined using a kit from Cisbio Corp. (cat. no. 62AM4PEC) based on Homogenous Time Resolved Fluorescence (HTRF).
Take B1: the EC50 is 0.16 nM.

B2 registered a half-maximal effective concentration (EC50) of 0.00998 nM.

As for B3, a half-maximal response (EC50) required 0.00763 nM.

In turn, B4 displayed an EC50 of 0.0101 nM.

For B5, the concentration giving a half-maximal response (EC50) came out at 0.0087 nM.

B6 returned an EC50 of 0.0118 nM.

As to B7, the EC50 amounted to 0.00851 nM.

B8 came in with an EC50 of 0.0129 nM. This EC50 is about 1.5-fold higher than that of the molecule before.

With B9, the EC50 came to 0.011 nM.

B10 showed an EC50 of 0.0103 nM. The EC50 values of the last two molecules are within 1.5-fold of each other.

B11 had an EC50 of 0.0134 nM.

The molecule B12 came in with an EC50 of 0.0115 nM.

For B13, a half-maximal effect (EC50) was put at 0.0123 nM.

As to B14, the EC50 was determined as 0.173 nM.

As for B15, the EC50 is 0.0173 nM.

B16 had an EC50 of 0.374 nM.
